# Test results: the supplement of paper PMC11417369
# This is one part of the list.
# System: PfHDP1 homeodomain (GST-tagged)
# Assay: gcPBM binding intensity (ln(normalized median fluorescence intensity)); higher = stronger DNA binding
# Method in brief: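 An Agilent 4 × 180k array carrying primer-extended double-stranded 36-bp intergenic genomic probes and negative controls received GST-tagged P. falciparum DNA-binding domains expressed in E. coli, about 25 μg on average, for 1 h. The binding buffer contained 1× PBS, 1% milk, 0.2 mg/ml BSA, 0.5% salmon testes DNA and 0.03% Triton X-100. Binding intensity is the top Masliner-normalised natural-log median intensity across replicate spots of either probe orientation, read after Alexa488 anti-GST antibody staining and a 488 nm scan.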
row,Sequence,gcPBM binding intensity (ln)
1,TTTTAATTTATTAATTGTACATGTATTTTAAGATTA [XGTACX_site8417],6.27
2,TAAACATTTGGCTGATGTACTTGCTACCTTAAATCA [XGTACX_site5514],5.93
3,ATTTTTGTGTATTAATGTACTTTATGCATATTTGAC [XGTACX_site3353],7.62
4,AAAAATAGAATAAATACACACCCGTGTAACGGATTT [CACACA_site3372],5.91
5,AATAATATATTTAGGGGTACATAATAATATATTTTA [XGTACX_site8366],6.64
6,TTTTAAATATGAACATGTACATGTAAATTTACATGT [XGTACX_site4573],6.66
7,TTTATAAAAATGAACACACACATATAAATATAAATA [CACACA_site7607],6.72
8,TTACGATCATCAATATGTACATATATATATATATAT [XGTACX_site4301],9.43
9,ATTTTTTTTTTTATAGTGGATCCACATTTGCCATTT [CACACA_negctrl_site1106],6.4
10,AATATTTATATTTACACACACATAATACATCTATGT [CACACA_site4187],6.73
11,TATAAAAAAATATTATAATATATATATATATATATA [XGTACX_negctrl_site41],9.16
12,GATAAATTAAGACACACACACATATATTTATTTATA [CACACA_site7789],6.74
13,AAAAAAGAACGCATAGTGCATATCTAAAAGATTTTT,7.88
14,TAGTATTAGATATATACACACATATATACCTATAGA [CACACA_site7083],6.5
15,TTGGTCTTTTAAAAAAGTACAAAAAAAAAAAAAAAA [XGTACX_site1665],6.08
16,TATAAATAAAGATATACACACATATAAATATTTTTC [CACACA_site7798],6.4
17,TTAACCGGTTTATGGGTGCACATTCTTCTTAAATAA [GTGCAC_site9928],8.3
18,CCTAGAAAAGTATATACACACGCGCAAAATAAAATT [CACACA_site1413],7.6
19,AAAAAAAAGTTAAGCACACACATGAATAAATAATAC [CACACA_site840],6.94
20,TATATATATATATATACACACATATATACCTATATA [CACACA_site6085],9.41
21,CATGTTCATCAGAACGCACACATAATGGTTTACTTA [CACACA_site898],6.81
22,GTGTATATGTATATATGTACATAAATTTTTTTTTTT [XGTACX_site7083],6.23
23,AGTAACTAATTAAATGCATGTCGATATATATTATAT [TGCATGCA_site1038],6.5

row,Sequence,gcPBM binding intensity (ln)
1,ACTTATATAAAACATTAACACACAAAGAAAAAAAAT [CACACA_site8529],7.1
2,GATACACCAAATAACTGTACGCACGTGTAATATTAA [XGTACX_site3441],7.32
3,AAGAAAAAAAAAATTACACACTGCGCACATACACAA [CACACA_site6721],7.88
4,AATAATAATACTAATCGTACGCATATTTTTCAAACC [XGTACX_site8055],6.46
5,ATTAAATACATTAACACACACACAAATATATACATA [CACACA_site2881],6.82
6,GGGAATATAAGTACACGATAATATGTGATAAGGTCT [CACACA_negctrl_site1502],7
7,TTTTATTTTTATTATACACACGCTTAATAAATGCAT [CACACA_site1751],7.02
8,TGTATAAAAGTTTATACACACATTTGATATATTTCA [CACACA_site6606],6.58
9,TATAAAAAAAACAAAAAAAAAAAAAAACAAAAAAAA [TGCATGCA_negctrl_site514],5.97
10,TTTTTTTGTTGTTGTTGTACGATATTTTCCTTATCA [XGTACX_site2375],6.98
11,GGGGGGATGAGATATTGTACTTTTTAGGAAAGTGTA [XGTACX_site2835],8.16
12,AAAGATAAAATATTATGTACATATATATATATATAT [XGTACX_site5079],9.28
13,CATTTAACATAAATTAAACACACAATATAATACATT [CACACA_site8333],6.6
14,GATCAAAATTATAGAAGTACTTTATATAAATAAAAT [XGTACX_site8161],6.41
15,TCTATAAAATATAAAAGTACGTATCAATAATTAAAA [XGTACX_site8469],6.59
16,TCATAAATACATTTTGCATGTAAAATATAGAATACA [TGCATGCA_site755],7.05
17,TATTTTATAAATTAATGTACATAAATTATATCTACT [XGTACX_site3625],6.16
18,ATTACGATAGAGAAATGTACATATATATATGTAAGT [XGTACX_site1200],6.61
19,ATCCCCATAAAAAATACACACAAATATTTATACATA [CACACA_site1001],6.79
20,AAGTAAAAAAAAAAAAGTACATGTTTATATAAATAT [XGTACX_site4741],6.37
21,ATAGAATCTGGTAGCTGTACGAGTCGTAGAGTGTAG [XGTACX_site2016],6.59
22,ATATATTAAAAGGATTAGGAAAAAATATGATTTATC [TGCATGCA_negctrl_site405],6.24
